“Also recorded” adds a separate entry of the source. Read-outs that look alike come from different tables or passages of the source.
Experiments:
[1] = tested on: MO7e cells grown in GM-CSF; assay: Mo7e SCF-independent proliferation (GM-CSF); assay type: cell-based, human; conditions: GM-CSF rather than SCF, 5 days, FIG. 16
Protocol: To evaluate the potential antagonistic properties of the naked antibodies and the ability of the antibody drug conjugates (ADCs) to inhibit the proliferation of a cKIT-expressing cell line, MO7e (DSMZ, Catalog # ACC-104, Braunschweig, Del.) were grown in the presence or absence of cKIT ligand, Stem Cell Factor (SCF), for survival. MO7e cells were grown in either 10 ng/ml human granulocyte-macrophage colony-stimulating factor GM-CSF (R&D Systems Cat#215-GM, Minneapolis, Minn.) or 10 ng/ml human Stem Cell Factor SCF (R&D Systems Cat#255-SC) prior to seeding in 96 well plates (Costar Cat #3904, Corning, Tewksbury, Mass.) at 5000 cells/well in 100 μl dilution medium. A duplicate plate was generated for a day 0 measurement and all plates were incubated in a tissue culture incubator at 37° C. with 5% CO2 overnight. […] Assay plates were shaken gently for 20 min and the resulting luminescence intensity was measured using a Perkin Elmer 1450 Microbeta TriLux® plate reader (Perkin Elmer, Waltham, Mass.). […] Following this incubation period, relative cell viability was determined via the addition of Cell titer Glo reagent as described above. The effect of the ADCs on cell proliferation was calculated using the average of the duplicates as follows: (% Inhibition=(ADC or Ab treated)/(untreated)*100) The % inhibition data was fitted to a 4-parameter logistic equation and IC50 values were determined.

[2] = Serum exposure by ELISA in NCI-H526 xenograft mice; conditions: NCI-H526 xenograft mice, 1.25, 2.5 and 5 mg/kg, FIG. 51
Text: To assess PK parameters, serum was collected via retro-orbital bleeds and analyzed via ELISA. The total antibody PK assay measures total antibody concentration, with/without DM1 by colorimetric ELISA. Plates are coated with anti-human IgG (Fc specific), and detection is with anti-human IgG-HRP before being read on an appropriate plate-reader. The conjugate PK assay measures antibody that is bound to at least one (1) DM1 molecule by colorimetric ELISA. In this format, plates are coated with anti-maytansine antibody, and detected with anti-human IgG-HRP.

[3] = tested on: wildtype cKIT cell line NCI-H526; assay: cKIT degradation time course, Western blot; assay type: cell-based, human
Protocol: 5×10^6 of GIST-T1 (kindly provided by Dr. Takahiro Taguchi, Kochi U., Japan) or NCI-H526 (ATCC CRL-5811) cells were seeded in growth media (DMEM, 10% FBS for GIST T-1 and RPMI, 10% FBS for NCI-H526) the night before at 37° C. with 5% CO2. Cells were then treated with 100 mM cycloheximide (CHX) (Cat#090M4009, Sigma-Aldrich, St. Louis, Mo.) in methionine free medium (GIBCO: DMEM, 21013-024; RPMI, A14517-01, Life Technologies, Carlsbad, Calif.). […] Cells were harvested at 1 hour, 4 hour, and 6 hour post treatment in 1 ml PBS. […] Lysates were then spun down for 40 mins at 12,000 rpm at 4 C. Five μg of each sample was boiled for 10 min at 75° C. and loaded on a 15-well NuPAGE® 4-12% Bis-Tris gel (NP0323BOX Life Technologies, Carlsbad, Calif.). After protein transfer to membrane blots, membranes were blocked in TBST-5% milk at room temperature for 1 hour and then probed with anti cKIT antibody (Cell Signaling Technology Cat#3074, Beverly, Mass.) overnight at 4° C. Blots were washed in TBST (4×5 mins) the next day. The blot was incubated in the secondary antibody (goat-anti rabbit-HRP 1:30,000, Santa Cruz Biotechnologies, Dallas, Tex.) for 1 hour at room temperature. The blot was washed in TBST (4×5 mins) and developed. The primary antibodies used for Western blotting were anti-cKIT (Cell Signaling Technology Cat#3074) and GAPDH (Cell Signaling Technology Cat#3683). […]

[4] = tested on: GIST T1 subcutaneous tumor xenograft
Protocol: The anti-tumor activity of anti-cKIT ADCs was evaluated in several tumor xenograft models.

[5] = GIST T1, Day 38, 1.25 mg/kg Single Dose IV
[6] = GIST T1, Day 38, 5 mg/kg Single Dose IV

Molecule | effect on cell proliferation [1] | serum exposure of the total antibody and ADC [2] | blocking of the cKIT receptor from binding SCF ([3]; ADC plus rh-SCF, FIG. 14B) | cKIT receptor degradation ([3]; NCI-H526, 5 μg/ml ADC, cycloheximide, 1, 4, 6 hours) | tolerability ([4]; GIST T1, 1.25, 2.5 or 5 mg/kg single i.v. dose) | Mean change of tumor volume [4, 5] | Mean change of tumor volume vs control (ΔT/ΔC) [4, 5] [%] | Survival [4, 5] | Mean change of tumor volume [4, 6] | Mean change of tumor volume vs control (ΔT/ΔC) [4, 6] [%] | Survival [4, 6] | antitumor activity (tumor volume) ([4]; GIST T1, SCID-beige mice, single i.v. dose 0.625 mg/kg, 0.625 mg/kg)
NEG085 (antibody) heavy: EVQLVESGGGLVQPGGSLRLSCAASGFAFSGYYMAWVRQAPGKGLEWVANINYPGSSTYYLDSVKGRFTISRDNAKNSLYLQMNSLRAEDTAVYYCARGDYYGTTYWYFDVWGQGTTVTVSSASTKGPSVFPLAPSSKSTSGGTAALGCLVKDYFPEPVTVSWNSGALTSGVHTFPAVLQSSGLYSLSSVVTVPSSSLGTQTYICNVNHKPSNTKVDKRV[human IgG1 Fc omitted here] light: DIQMTQSPSSLSASVGDRVTITCRASQSISSYLNWYQQKPGKAPKLLIYYTSRLQSGVPSRFSGSGSGTDFTLTISSLQPEDFATYYCQQGRRLWSFGGGTKVEIKRTVAAPSVFIFPPSDEQLKSGTASVVCLLNNFYPREAKVQWKVDNALQSGNSQESVTEQDSKDSTYSLSSTLTLSKADYEKHKVYACEVTHQGLSSPVTKSFNRGEC | no detrimental effect on cell proliferation |  |  |  |  |  |  |  |  |  |  | 
NEG085-MCC-DM1 (conjugate) heavy: EVQLVESGGGLVQPGGSLRLSCAASGFAFSGYYMAWVRQAPGKGLEWVANINYPGSSTYYLDSVKGRFTISRDNAKNSLYLQMNSLRAEDTAVYYCARGDYYGTTYWYFDVWGQGTTVTVSSASTKGPSVFPLAPSSKSTSGGTAALGCLVKDYFPEPVTVSWNSGALTSGVHTFPAVLQSSGLYSLSSVVTVPSSSLGTQTYICNVNHKPSNTKVDKRV[human IgG1 Fc omitted here] light: DIQMTQSPSSLSASVGDRVTITCRASQSISSYLNWYQQKPGKAPKLLIYYTSRLQSGVPSRFSGSGSGTDFTLTISSLQPEDFATYYCQQGRRLWSFGGGTKVEIKRTVAAPSVFIFPPSDEQLKSGTASVVCLLNNFYPREAKVQWKVDNALQSGNSQESVTEQDSKDSTYSLSSTLTLSKADYEKHKVYACEVTHQGLSSPVTKSFNRGEC |  | dose dependent serum exposure | does not block the cKIT receptor from binding SCF | rapid with levels becoming very low/undetectable after 6 hours | well tolerated at all dose levels | 712 ± 225 mm3 ± SEM | 63 | 9/9 | 140 ± 63 mm3 ± SEM | 12 | 9/9 | smallest tumor volumes in the tightest range; also recorded: low efficacy

Reference: US9789203B2, “cKIT antibody drug conjugates” (Novartis AG, priority 2013, dated 2017)
